Assay results: PubChem BioAssay AID488969 (Vanderbilt High Throughput Screening Facility, 2010)
The full ranking holds about 110,000 compounds; the median of “z-score” is about -0.1, and the highest 2% start at about 2. The list shows a part of the results. Activity calls are given as the source filed them.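 Rule for the calls: active = z-score in the third read window above 3 or below -3; inactive = the rest.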

biological target: Metabotropic glutamate receptor 8 (Rattus norvegicus) (UniProt P70579); test: rat mGluR8 modulators via GIRK flux, primary screen, cell-based, thallium flux, HTS (AID 488969); settings: HEK293 rat mGluR8, GIRK (G protein-gated inwardly rectifying potassium channel) thallium flux, FluoZin2; at 10 µM; stronger effect = higher value; submaximal glutamate (EC20) added with thallium
UniProt P70579, sequence (P70579 whole entry, looked up): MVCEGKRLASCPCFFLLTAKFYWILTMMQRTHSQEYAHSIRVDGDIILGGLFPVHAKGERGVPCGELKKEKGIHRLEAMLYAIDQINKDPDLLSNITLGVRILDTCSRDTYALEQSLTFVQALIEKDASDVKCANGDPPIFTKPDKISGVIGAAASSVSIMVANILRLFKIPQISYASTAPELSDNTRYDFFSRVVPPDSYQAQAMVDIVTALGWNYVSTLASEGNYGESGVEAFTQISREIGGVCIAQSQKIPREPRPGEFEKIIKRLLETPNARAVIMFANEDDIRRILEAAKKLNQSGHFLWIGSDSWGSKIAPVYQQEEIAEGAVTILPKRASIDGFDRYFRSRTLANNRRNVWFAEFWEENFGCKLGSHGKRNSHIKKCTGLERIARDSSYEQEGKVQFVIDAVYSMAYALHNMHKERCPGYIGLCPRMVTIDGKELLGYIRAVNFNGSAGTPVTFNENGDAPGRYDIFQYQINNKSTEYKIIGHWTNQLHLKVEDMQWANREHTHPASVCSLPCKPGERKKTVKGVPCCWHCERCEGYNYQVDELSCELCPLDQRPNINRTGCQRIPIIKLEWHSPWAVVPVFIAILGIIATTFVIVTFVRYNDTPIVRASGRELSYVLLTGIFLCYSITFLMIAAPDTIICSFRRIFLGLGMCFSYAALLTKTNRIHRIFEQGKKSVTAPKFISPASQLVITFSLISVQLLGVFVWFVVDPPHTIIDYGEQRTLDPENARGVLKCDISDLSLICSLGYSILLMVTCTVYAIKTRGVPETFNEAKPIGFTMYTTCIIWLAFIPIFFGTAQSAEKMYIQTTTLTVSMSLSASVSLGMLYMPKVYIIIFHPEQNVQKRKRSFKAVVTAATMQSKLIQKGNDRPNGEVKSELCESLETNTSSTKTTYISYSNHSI

Row | Structure (SMILES) | z-score
1 | CC1=C(C(N)=O)C(c2ccncc2)n2nc(-c3ccccc3Cl)nc2N1 (configuration not stated) | -0.353
2 | CCCCOc1ccccc1NC(=O)CC1SC(=NCC)N(CC)C1=O (configuration not stated) | 0.518
3 | c1ccc(-c2cnnc(N3CCCCC3)n2)cc1 | -0.602
4 | Cc1ccc2[nH]c(=O)c(CN(CC3CCCO3)S(=O)(=O)c3c(C)ccc4nsnc34)cc2c1 (configuration not stated) | -0.0122
5 | CC1Sc2ccc(C(=O)O)cc2NC1=O (configuration not stated) | -0.0525
6 | Cc1ccc(C)c(S(=O)(=O)NC(C)C(=O)Nc2ccc(-c3nc4ccccc4s3)cc2)c1 (configuration not stated) | 0.0236
7 | Nc1ccccc1Oc1ncc(C(F)(F)F)cc1Cl | 0.022
8 | c1ccc(OCCSc2ncnc3nc[nH]c23)cc1 | -0.123
9 | COc1ccc(Cn2c(-c3ccc(OC)cc3)nc3c(c(=O)c4ccccc4n3C)c2=O)cc1 | -0.37
10 | C=C(C)n1c(=O)[nH]c2ccccc21 | 0.0218
11 | C=CCNC(=O)CSc1ccc(Cl)cc1 | -0.0805
12 | Cc1ccc(SCc2nnc(NC(=O)c3ccccc3)s2)cc1 | 0.572
13 | COc1cccc(/C(O)=C2/C(=O)C(=O)N(CCN3CCOCC3)C2c2cccnc2)c1 (configuration not stated) | 0.0203
14 | Cc1ccc2nc(C(F)OC(F)(F)F)[nH]c2c1 (configuration not stated) | -0.0345
15 | COc1cccc(C(=O)NC(=S)N2CCN(c3ccc(C(F)(F)F)cc3[N+](=O)[O-])CC2)c1 | active: 4.68
16 | CCCC(=O)Nc1c(-c2ccccc2)c(=O)c(C)nn1-c1ccc(Cl)cc1 | -0.343

Row | Structure (SMILES) | z-score
17 | CCN1CCN(S(=O)(=O)c2cccs2)CC1 | 0.736
18 | Cc1cccc(NC(=O)c2ccc(N3CCCCC3)c([N+](=O)[O-])c2)n1 | 0.863
19 | Cc1ccc(C(=O)NNC(=O)OC(C)(C)C)c(Cl)c1 | -0.165
20 | Clc1ccc2c(c1)CNc1c(ncnc1N1CCOCC1)O2 | 0.261
21 | CN(c1ccc(C(=O)N2CCOCC2)cc1[N+](=O)[O-])C1CCCCC1 | -0.174
22 | Cc1cccc(OC(=O)CN2C(=O)C3C4CCC(C4)C3C2=O)c1C (configuration not stated) | -0.136
23 | CCn1c(O)c(/C=C2\C=Nc3ccccc32)sc1=Nc1ccc(C)cc1 | -0.138
24 | CC(=O)C1=C(O)C(=O)N(Cc2cccnc2)C1c1ccccc1Cl (configuration not stated) | -0.135
25 | O=C(Nc1ccccc1F)C1CC1c1ccccc1 (configuration not stated) | -0.295
26 | O=C1CC(N(CCc2ccccc2)C(=S)Nc2ccccc2)C(=O)N1c1ccc(Br)cc1 (configuration not stated) | 0.105
27 | COc1ccccc1C(=O)NCc1ccccc1 | -0.524
28 | CC(=O)c1cccc(N=C2C(=O)Nc3ccccc32)c1 | 0.86
29 | CCSC1=C(C#N)C(c2ccc(C)s2)CC(=O)N1 (configuration not stated) | -0.627
30 | COCCn1c(SCc2cnc(-c3ccccc3)s2)nnc1-c1ccncc1 | -0.0799
31 | Clc1ccc(C(c2ccccc2)N2CCNCC2)cc1 (configuration not stated) | 2.16
32 | Cc1cccc(/C(N)=N/OC(=O)c2ccco2)c1 | -0.249
